Test results taken from the supplement of paper PMC8728848.
The other results are listed elsewhere or left out.

What was measured:
Test in all cases: glycan array binding signal (z-score within array); higher = stronger binding
Settings in all cases: glycan notation: IUPAC condensed, linker removed
[1] = target: Gal(b1-3)GlcNAc(b1-6)[Gal(b1-3)]GalNAc
How it was run: (§1)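 From the Consortium for Functional Glycomics database, 3228 arrays were curated, keeping only those whose protein sequence was available. Binding is given as a within-array Z-score averaged across arrays sharing a protein sequence and across linkers. Negative Z-scores can be read as non-binding.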

[2] = target: Gal(b1-3)GlcNAc6S
How it was run: as §1

[3] = target: Gal(b1-3)[Fuc(a1-4)]GlcNAc
How it was run: as §1

[4] = target: Gal(b1-3)[Fuc(a1-4)]GlcNAc(b1-2)Man
How it was run: as §1

[5] = target: Gal(b1-3)[Fuc(a1-4)]GlcNAc(b1-2)Man(a1-3)[Gal(b1-3)[Fuc(a1-4)]GlcNAc(b1-2)Man(a1-6)]Man(b1-4)GlcNAc(b1-4)[Fuc(a1-6)]GlcNAc
How it was run: as §1

[6] = target: Gal(b1-3)[Fuc(a1-4)]GlcNAc(b1-3)Gal(b1-3)[Fuc(a1-4)]GlcNAc
How it was run: as §1

[7] = target: Gal(b1-3)[Fuc(a1-4)]GlcNAc(b1-3)Gal(b1-4)[Fuc(a1-3)]GlcNAc
How it was run: as §1

[8] = target: Gal(b1-3)[Fuc(a1-4)]GlcNAc(b1-6)GalNAc
How it was run: as §1

[9] = target: Gal(b1-3)[GlcNAc(b1-6)]GalNAc
How it was run: as §1

[10] = target: Gal(b1-3)[Neu5Ac(a2-6)]GalNAc
How it was run: as §1

[11] = target: Gal(b1-3)[Neu5Ac(a2-6)]GlcNAc(b1-4)Gal(b1-4)Glc
How it was run: as §1

[12] = target: Gal(b1-3)[Neu5Ac(b2-6)]GalNAc
How it was run: as §1

[13] = target: Gal(b1-4)Gal
How it was run: as §1

[14] = target: Gal(b1-4)GalNAc(a1-3)[Fuc(a1-2)]Gal(b1-4)GlcNAc
How it was run: as §1

[15] = target: Gal(b1-4)GalNAc(b1-3)[Fuc(a1-2)]Gal(b1-4)GlcNAc
How it was run: as §1

[16] = target: Gal(b1-4)Glc
How it was run: as §1

[17] = target: Gal(b1-4)Glc6S
How it was run: as §1

[18] = target: Gal(b1-4)GlcNAc
How it was run: as §1

[19] = target: Gal(b1-4)GlcNAc(a1-6)Gal(b1-4)GlcNAc
How it was run: as §1

[20] = target: Gal(b1-4)GlcNAc(b1-2)Man
How it was run: as §1

[21] = target: Gal(b1-4)GlcNAc(b1-2)Man(a1-3)Man(b1-4)GlcNAc(b1-4)GlcNAc
How it was run: as §1

[22] = target: Gal(b1-4)GlcNAc(b1-2)Man(a1-3)[Gal(b1-4)GlcNAc(b1-2)Man(a1-6)]Man(b1-4)GlcNAc(b1-4)GlcNAc
How it was run: as §1

[23] = target: Gal(b1-4)GlcNAc(b1-2)Man(a1-3)[Gal(b1-4)GlcNAc(b1-2)Man(a1-6)]Man(b1-4)GlcNAc(b1-4)[Fuc(a1-6)]GlcNAc
How it was run: as §1

[24] = target: Gal(b1-4)GlcNAc(b1-2)Man(a1-3)[Gal(b1-4)GlcNAc(b1-2)Man(a1-6)][Gal(b1-4)GlcNAc(b1-4)]Man(b1-4)GlcNAc(b1-4)[Fuc(a1-6)]GlcNAc
How it was run: as §1

[25] = target: Gal(b1-4)GlcNAc(b1-2)Man(a1-3)[Gal(b1-4)GlcNAc(b1-2)Man(a1-6)][GlcNAc(b1-4)]Man(b1-4)GlcNAc(b1-4)[Fuc(a1-6)]GlcNAc
How it was run: as §1

[26] = target: Gal(b1-4)GlcNAc(b1-2)Man(a1-3)[GlcNAc(b1-2)Man(a1-6)]Man(b1-4)GlcNAc(b1-4)GlcNAc
How it was run: as §1

[27] = target: Gal(b1-4)GlcNAc(b1-2)Man(a1-3)[GlcNAc(b1-4)][Gal(b1-4)GlcNAc(b1-2)Man(a1-6)]Man(b1-4)GlcNAc(b1-4)GlcNAc
How it was run: as §1

[28] = target: Gal(b1-4)GlcNAc(b1-2)Man(a1-3)[Man(a1-6)]Man(b1-4)GlcNAc(b1-4)GlcNAc
How it was run: as §1

[29] = target: Gal(b1-4)GlcNAc(b1-2)Man(a1-6)Man(b1-4)GlcNAc(b1-4)GlcNAc
How it was run: as §1

[30] = target: Gal(b1-4)GlcNAc(b1-2)Man(a1-6)[GlcNAc(b1-2)Man(a1-3)]Man(b1-4)GlcNAc(b1-4)GlcNAc
How it was run: as §1

[31] = target: Gal(b1-4)GlcNAc(b1-2)Man(a1-6)[Man(a1-3)]Man(b1-4)GlcNAc(b1-4)GlcNAc
How it was run: as §1

[32] = target: Gal(b1-4)GlcNAc(b1-2)[Gal(b1-4)GlcNAc(b1-4)]Man(a1-3)[Gal(b1-4)GlcNAc(b1-2)Man(a1-6)]Man(b1-4)GlcNAc(b1-4)GlcNAc
How it was run: as §1

[33] = target: Gal(b1-4)GlcNAc(b1-2)[Gal(b1-4)GlcNAc(b1-4)]Man(a1-3)[Gal(b1-4)GlcNAc(b1-2)[Gal(b1-4)GlcNAc(b1-6)]Man(a1-6)]Man(b1-4)GlcNAc(b1-4)GlcNAc
How it was run: as §1

[34] = target: Gal(b1-4)GlcNAc(b1-2)[Gal(b1-4)GlcNAc(b1-4)]Man(a1-3)[GlcNAc(b1-4)][Gal(b1-4)GlcNAc(b1-2)Man(a1-6)]Man(b1-4)GlcNAc(b1-4)GlcNAc
How it was run: as §1

[35] = target: Gal(b1-4)GlcNAc(b1-2)[Gal(b1-4)GlcNAc(b1-4)]Man(a1-3)[GlcNAc(b1-4)][Gal(b1-4)GlcNAc(b1-2)[Gal(b1-4)GlcNAc(b1-6)]Man(a1-6)]Man(b1-4)GlcNAc(b1-4)GlcNAc
How it was run: as §1

[36] = target: Gal(b1-4)GlcNAc(b1-2)[Gal(b1-4)GlcNAc(b1-6)]Man(a1-6)[Gal(b1-4)GlcNAc(b1-2)Man(a1-3)]Man(b1-4)GlcNAc(b1-4)GlcNAc
How it was run: as §1

[37] = target: Gal(b1-4)GlcNAc(b1-2)[Gal(b1-4)GlcNAc(b1-6)]Man(a1-6)[Gal(b1-4)GlcNAc(b1-2)Man(a1-3)]Man(b1-4)GlcNAc(b1-4)[Fuc(a1-6)]GlcNAc
How it was run: as §1

[38] = target: Gal(b1-4)GlcNAc(b1-2)[Gal(b1-4)GlcNAc(b1-6)]Man(a1-6)[GlcNAc(b1-4)][Gal(b1-4)GlcNAc(b1-2)Man(a1-3)]Man(b1-4)GlcNAc(b1-4)GlcNAc
How it was run: as §1

[39] = target: Gal(b1-4)GlcNAc(b1-2)[Gal(b1-4)GlcNAc(b1-6)]Man(a1-6)[GlcNAc(b1-4)][Gal(b1-4)GlcNAc(b1-2)[Gal(b1-4)GlcNAc(b1-4)]Man(a1-3)]Man(b1-4)GlcNAc(b1-4)[Fuc(a1-6)]GlcNAc
How it was run: as §1

[40] = target: Gal(b1-4)GlcNAc(b1-3)Gal(b1-3)GalNAc
How it was run: as §1

[41] = target: Gal(b1-4)GlcNAc(b1-3)Gal(b1-3)GlcNAc
How it was run: as §1

[42] = target: Gal(b1-4)GlcNAc(b1-3)Gal(b1-4)Glc
How it was run: as §1

[43] = target: Gal(b1-4)GlcNAc(b1-3)Gal(b1-4)GlcNAc
How it was run: as §1

[44] = target: Gal(b1-4)GlcNAc(b1-3)Gal(b1-4)GlcNAc(b1-2)Man(a1-3)[Gal(b1-4)GlcNAc(b1-3)Gal(b1-4)GlcNAc(b1-2)Man(a1-6)]Man(b1-4)GlcNAc(b1-4)GlcNAc
How it was run: as §1

[45] = target: Gal(b1-4)GlcNAc(b1-3)Gal(b1-4)GlcNAc(b1-2)Man(a1-3)[Gal(b1-4)GlcNAc(b1-3)Gal(b1-4)GlcNAc(b1-2)Man(a1-6)]Man(b1-4)GlcNAc(b1-4)[Fuc(a1-6)]GlcNAc
How it was run: as §1

B1: rCnSL-proA (Clitocybe nebularis) (protein)
chain: AAFFSLVVLLALLPFGIHASALPSTELTPRVNPNLPGPNDVFVGFRGTNNIVGAIYEKDGIKDTPLNNGADAEMGPGSYITDGLFTARIFASGSAGNNPGTTATVCKIYASGVQWRGAPKGYIPVAYFGNGPTAEQRRQTYLRTLGLPGTAIRFGNLNTNPGQGPTAPRQMVVPPGPLRSLLKASCFPAADTRLPQTLHYFEKRVDWNIITAADSQTWGH
- glycan array binding signal (z-score) [1]: -0.912
- glycan array binding signal (z-score) [2]: -0.147
- glycan array binding signal (z-score) [3]: -0.077
- glycan array binding signal (z-score) [4]: -0.106
- glycan array binding signal (z-score) [5]: -0.292
- glycan array binding signal (z-score) [6]: -0.333
- glycan array binding signal (z-score) [7]: -0.471
- glycan array binding signal (z-score) [8]: -0.623
- glycan array binding signal (z-score) [9]: -0.423
- glycan array binding signal (z-score) [10]: 0.335
- glycan array binding signal (z-score) [11]: -0.459
- glycan array binding signal (z-score) [12]: -0.458
- glycan array binding signal (z-score) [13]: -0.621
- glycan array binding signal (z-score) [14]: -0.433
- glycan array binding signal (z-score) [15]: -0.746
- glycan array binding signal (z-score) [16]: 0.103
- glycan array binding signal (z-score) [17]: -0.424
- glycan array binding signal (z-score) [18]: -0.22
- glycan array binding signal (z-score) [19]: 3.94
- glycan array binding signal (z-score) [20]: -0.205
- glycan array binding signal (z-score) [21]: 0.14
- glycan array binding signal (z-score) [22]: 0.004
- glycan array binding signal (z-score) [23]: 0.559
- glycan array binding signal (z-score) [24]: 0.197
- glycan array binding signal (z-score) [25]: -0.263
- glycan array binding signal (z-score) [26]: -0.932
- glycan array binding signal (z-score) [27]: -0.267
- glycan array binding signal (z-score) [28]: -0.19
- glycan array binding signal (z-score) [29]: -0.194
- glycan array binding signal (z-score) [30]: -0.518
- glycan array binding signal (z-score) [31]: -0.587
- glycan array binding signal (z-score) [32]: 0.465
- glycan array binding signal (z-score) [33]: 2.99
- glycan array binding signal (z-score) [34]: 0.523
- glycan array binding signal (z-score) [35]: 1.02
- glycan array binding signal (z-score) [36]: 2.07
- glycan array binding signal (z-score) [37]: 3.41
- glycan array binding signal (z-score) [38]: -0.375
- glycan array binding signal (z-score) [39]: 0.986
- glycan array binding signal (z-score) [40]: -0.209
- glycan array binding signal (z-score) [41]: -0.503
- glycan array binding signal (z-score) [42]: 0.012
- glycan array binding signal (z-score) [43]: -0.336
- glycan array binding signal (z-score) [44]: 5.99
- glycan array binding signal (z-score) [45]: 1.32
